Where a name gives a salt, the structure may show the parent alone. ± gives the standard deviation of the averaged measurements. The list shows a part of the results.

In this test the test system is OVCAR8. Nature of the test: cell count relative to DMSO vehicle (fold change); OVCAR8 is a high-grade serous ovarian cancer line and CX-5461 an RNA polymerase I inhibitor; higher = more surviving senescent cells (less killing). As to conditions: senescence inducer: CX-5461 3 µM 48 h, then 6 d recovery (CX senescent), exposure time 24 h.

Turning to `C[C@H](Oc1cc(-c2cnn(C3CCNCC3)c2)cnc1N)c1c(Cl)ccc(F)c1Cl` [(S)-Crizotinib], the cell count is 0.311 ± 0.1 (compound dose 1 µM) and 0.127 ± 0.0071 (compound dose 5 µM).

Regarding `COc1cc(/C=C/c2ccc(O)c(O)c2)cc(OC)c1` [3'-Hydroxypterostilbene], the cell count reads like this: (compound dose 1 µM) 1.21 ± 0.14; (compound dose 5 µM) 1.49 ± 0.15.

With `O=C1CC[C@H](N2Cc3c(OCc4ccc(CN5CCOCC5)cc4)cccc3C2=O)C(=O)N1` [Iberdomide], the cell count is 1.28 ± 0.28 (compound dose 1 µM) and 1.32 ± 0.34 (compound dose 5 µM).

As to `CC1(C)CC[C@]2(C(=O)O)[C@H](O)C[C@]3(C)C(=CC[C@@H]4[C@@]5(C)CC[C@H](O)C(C)(C)[C@@H]5CC[C@]43C)[C@H]2C1` [Echinocystic acid], the cell count was determined as 1.103 ± 0.0035 (compound dose 1 µM) and 1.19 ± 0.12 (compound dose 5 µM).

The molecule `CN(CCOc1ccc(CC2SC(=O)NC2=O)cc1)c1ccccn1` (stereo not given) came in with a cell count (compound dose 1 µM) of 1.07 ± 0.21 and a cell count (compound dose 5 µM) of 1.07 ± 0.16.

With `O=C(O)CC1CC(c2ccccc2)=NO1` (stereo not given), the cell count was determined as 1.18 ± 0.038 (compound dose 1 µM) and 1.13 ± 0.081 (compound dose 5 µM).

With `COC[C@H](NC(=O)c1cnc(C)s1)C(=O)N[C@@H](COC)C(=O)N[C@@H](Cc1ccccc1)C(=O)[C@@]1(C)CO1` [Oprozomib], the cell count is, setting by setting: (compound dose 1 µM) 1.31 ± 0.38; (compound dose 5 µM) 0.571 ± 0.057.

`CC(CCC(=O)NCCS(=O)(=O)O)C1CCC2C3C(O)CC4CC(O)CCC4(C)C3CCC12C` (stereo not given) [Taurochenodeoxycholic acid (sodium salt)]: the cell count is, setting by setting: (compound dose 1 µM) 1.16 ± 0.27; (compound dose 5 µM) 1.15 ± 0.34.

In the case of `COc1ccc(CC[C@@H](OC(=O)[C@@H]2CCCCN2C(=O)[C@H](c2cc(OC)c(OC)c(OC)c2)C2CCCCC2)c2cccc(OCCN3CCOCC3)c2)cc1OC`, the cell count runs as follows: (compound dose 1 µM) 1.15 ± 0.19; (compound dose 5 µM) 1.11 ± 0.23.

Regarding `S=C(N/N=C1/CCCc2cccnc21)N1CCN(c2ccccn2)CC1`, the cell count worked out at 0.899 ± 0.1 (compound dose 1 µM) and 0.968 ± 0.11 (compound dose 5 µM).

Consider `COc1ccc(-c2cc(C(F)F)nn2-c2ccc(S(N)(=O)=O)cc2)cc1F`, for which the cell count runs as follows: (compound dose 1 µM) 1.17 ± 0.052; (compound dose 5 µM) 1.05 ± 0.12.

On to `O=C(Nc1ccc(Cl)c(Cl)c1)Nc1ccc2nnsc2c1`, for which the cell count is, setting by setting: (compound dose 1 µM) 0.625 ± 0.069; (compound dose 5 µM) 0.482 ± 0.018.

As to `CN1C(=O)[C@@H](NC(=O)c2cc(Cc3ccccc3)on2)COc2ccccc21`, the cell count (compound dose 1 µM) stood at 1.15 ± 0.28 and the cell count (compound dose 5 µM) stood at 1.24 ± 0.42.

With `COc1c(/C=C/C(=O)c2ccc(O)cc2)ccc(O)c1O` [Licochalcone B], the cell count (compound dose 1 µM) came out at 1 ± 0.1 and the cell count (compound dose 5 µM) worked out at 0.905 ± 0.17.

Take `O=C(NS(=O)(=O)c1ccc(Br)s1)c1ccc(Cl)cc1Cl` [Tasisulam]: the cell count was found to be 0.954 ± 0.11 (compound dose 1 µM) and 1.05 ± 0.13 (compound dose 5 µM).

`C/C(=N\NC(=O)c1cccc(S(=O)(=O)N2CCOCC2)c1)c1cc(Cl)ccc1O`: the cell count reads like this: (compound dose 1 µM) 1.201 ± 0.011; (compound dose 5 µM) 1.17 ± 0.095.

Take `C=CCSCC(N)C(=O)O` (stereo not given): the cell count is, setting by setting: (compound dose 1 µM) 1.21 ± 0.12; (compound dose 5 µM) 1.21 ± 0.095.

As for `CC(Nc1nc(N2CCCC2)nc2ccccc12)c1ccccc1` (stereo not given) [Importazole], the cell count worked out at 1.17 ± 0.15 (compound dose 1 µM) and 1.12 ± 0.088 (compound dose 5 µM).

As to `COc1cc2c(c(OC)c1OC)-c1c(cc3c(c1OC)OCO3)C[C@H](C)[C@H](C)C2` [Gomisin N], the cell count was determined as 0.995 ± 0.078 (compound dose 1 µM) and 1.008 ± 0.0057 (compound dose 5 µM).

For the molecule `Nc1cccc2c1CN(C1CCC(=O)NC1=O)C2=O` (stereo not given) [Lenalidomide], the cell count is, setting by setting: (compound dose 1 µM) 1.04 ± 0.1; (compound dose 5 µM) 1.08 ± 0.05.

As for `CCOC(=O)C1=CCCC[C@H]1S(=O)(=O)Nc1ccc(F)cc1Cl` [Resatorvid], the cell count is, setting by setting: (compound dose 1 µM) 1.01 ± 0.099; (compound dose 5 µM) 0.857 ± 0.014.

As to `O=C(Nc1ccc(-c2ccnc(Nc3ccc(N4CCOCC4)cc3)n2)cc1)C1CCCN1` (stereo not given), the cell count runs as follows: (compound dose 1 µM) 1.07 ± 0.079; (compound dose 5 µM) 1.03 ± 0.16.

As for `COc1nc(-c2ccc3c(c2)OCO3)n(-c2ccc(NC(=O)CSc3ccccc3)cc2)n1` [SecinH3], the cell count by setting is: (compound dose 1 µM) 0.995 ± 0.1; (compound dose 5 µM) 0.941 ± 0.18.

The molecule `Cc1ccc(NC(=O)Nc2nnc(Sc3ncnc4cc(OCCCN5CCOCC5)ccc34)s2)cc1` returned a cell count (compound dose 1 µM) of 0.983 ± 0.015 and a cell count (compound dose 5 µM) of 0.93 ± 0.025.

On to `O=NN(CCCl)C(=O)NC1CCCCC1`, for which the cell count reads like this: (compound dose 1 µM) 1.02 ± 0.25; (compound dose 5 µM) 1.12 ± 0.096.

Take `CCc1cccc2c1N(C)Cc1cc3c(cc1-2)OCO3`: the cell count runs as follows: (compound dose 1 µM) 1.13 ± 0.2; (compound dose 5 µM) 1.05 ± 0.2.

Turning to `CCOc1cc(C(C)(C)C)ccc1C1=N[C@@](C)(c2ccc(Cl)cc2)[C@@](C)(c2ccc(Cl)cc2)N1C(=O)N1CCN(CC(=O)N2CCOCC2)CC1` [p53 and MDM2 proteins-interaction-inhibitor (chiral)], the cell count by setting is: (compound dose 1 µM) 1.15 ± 0.24; (compound dose 5 µM) 0.986 ± 0.033.

In the case of `O=c1c2cc(O)c(O)cc2oc2cc(O)c([C@@H]3O[C@H](CO)[C@@H](O)[C@H](O)[C@H]3O)c(O)c12` [Mangiferin], the cell count runs as follows: (compound dose 1 µM) 0.999 ± 0.26; (compound dose 5 µM) 1.05 ± 0.24.

In the case of `Cn1c(=O)cc(N2CCC[C@@H](N)C2)n(Cc2ccccc2C#N)c1=O` [Alogliptin (Benzoate)], the cell count by setting is: (compound dose 1 µM) 1.2 ± 0.19; (compound dose 5 µM) 1.14 ± 0.093.

With `N[C@@H](CC(=O)N1CCN(C(c2ccc(F)cc2)c2ccc(F)cc2)CC1)C(=O)N1Cc2ccccc2C1`, the cell count amounted to 1.03 ± 0.22 (compound dose 1 µM) and 1.06 ± 0.21 (compound dose 5 µM).

In the case of `C[C@@H]1CN(C(=O)Nc2ccc(-c3nc(N4CCOCC4)c4cnn(CCCCCCC(=O)NO)c4n3)cc2)CCO1` [HDACs/mTOR Inhibitor 1], the cell count runs as follows: (compound dose 1 µM) 0.612 ± 0.025; (compound dose 5 µM) 0.593 ± 0.043.

The molecule `CNC(=O)Nc1ccc(-c2nc(N3CC4CCC(C3)O4)c3cnn(C4CCC5(CC4)OCCO5)c3n2)cc1` displayed a cell count (compound dose 1 µM) of 1.09 ± 0.18 and a cell count (compound dose 5 µM) of 0.816 ± 0.0014.

Turning to `C[C@H](NP(=O)(OC[C@H]1O[C@@H](n2cc(F)c(=O)[nH]c2=O)C[C@@H]1O)Oc1cccc2ccccc12)C(=O)OCc1ccccc1` (stereo not given in full) [Fosifloxuridine nafalbenamide], the cell count (compound dose 1 µM) turned out to be 1.02 ± 0.016 and the cell count (compound dose 5 µM) worked out at 1.04 ± 0.05.

For the molecule `C=C1C(=O)O[C@@H]2C[C@@]3(C)CCC[C@H](C)C3=C[C@H]12` [Alantolactone], the cell count reads like this: (compound dose 1 µM) 0.624 ± 0.15; (compound dose 5 µM) 0.307 ± 0.0014.

Consider `O[C@H]1[C@H]2c3cc4c(cc3CN3CCC(=C[C@@H]1O)[C@H]23)OCO4` [Lycorine], for which the cell count runs as follows: (compound dose 1 µM) 0.96 ± 0.09; (compound dose 5 µM) 0.969 ± 0.076.

The values are drawn from the supplement of paper PMC12462457.
